Test results from the supplement of paper PMC3334620.
The full ranking holds about 33,000 sequences; the median of “E-score (-0.5 to 0.5)” is about -0.012, and the highest 2% start at about 0.27. The list shows a part of the results.

What follows are sequences tested against T1, Vhr1 (UniProt P40522) (assay: PBM E-score (8-mer binding enrichment) (E-score (-0.5 to 0.5)); higher = stronger / more preferred TF binding; most listed sequences are background and not binding sites). Conditions: protein concentration: 200 nM; construct: GST-full length.
T1 sequence: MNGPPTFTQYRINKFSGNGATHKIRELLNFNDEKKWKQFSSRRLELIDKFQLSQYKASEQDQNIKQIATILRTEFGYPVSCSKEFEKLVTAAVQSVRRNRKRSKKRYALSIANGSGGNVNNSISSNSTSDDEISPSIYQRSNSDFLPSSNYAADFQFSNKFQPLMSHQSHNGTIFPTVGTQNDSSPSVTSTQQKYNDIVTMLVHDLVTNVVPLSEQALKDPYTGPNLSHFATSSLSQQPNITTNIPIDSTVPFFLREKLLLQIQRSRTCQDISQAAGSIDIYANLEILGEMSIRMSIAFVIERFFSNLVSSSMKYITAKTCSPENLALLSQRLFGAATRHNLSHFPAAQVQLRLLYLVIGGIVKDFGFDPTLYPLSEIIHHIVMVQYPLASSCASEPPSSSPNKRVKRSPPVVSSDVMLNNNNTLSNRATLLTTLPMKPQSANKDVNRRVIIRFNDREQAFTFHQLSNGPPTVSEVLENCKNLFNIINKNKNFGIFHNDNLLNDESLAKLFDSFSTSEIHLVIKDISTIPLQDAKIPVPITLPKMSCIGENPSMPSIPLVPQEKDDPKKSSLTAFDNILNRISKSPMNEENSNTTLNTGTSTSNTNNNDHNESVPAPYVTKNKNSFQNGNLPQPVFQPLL
Protocol: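 Universal 'all 10-mer' protein binding microarrays (Agilent AMADID 015681) probed with GST-tagged S. cerevisiae TFs (full-length or DBD) made by in vitro transcription/translation (PURExpress), about 100-200 nM. Bound TF was detected with fluorescent anti-GST. Each ungapped 8-mer (which stands for itself and its reverse complement) is scored by the PBM enrichment score (E-score), a modified Wilcoxon-Mann-Whitney statistic from -0.5 to +0.5, computed with the Universal PBM Analysis Suite. Scale: above 0.35 generally sequence-specific binding.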

Sequence | PBM E-score
GACGCTGA | 0.0711
AACTGTGT | 0.111
GCTTGACA | -0.16
AGCAAGCA | -0.0599
CGGGAATC | -0.00766
GCTGGGCC | -0.205
TATTCACA | 0.0257
CACTCGCG | 0.129
TAGTTTGA | 0.0738
CTCGTACA | 0.0426
ACGTGTGA | 0.022
ATAACGCC | -0.0482
ACTGTTCG | 0.03
ATCGCGTA | -0.0246
TAAACGTA | -0.115
AACTCTTC | -0.138
AACCGGTG | -0.187
ACCTATGG | 0.0698
CTATCCCA | -0.0474
GAGAAACC | -0.0374
AGACGAGG | -0.151
AGTAATTA | 0.134
CCTCCTTA | -0.177
CGGCCCAC | -0.191
GGCATCGA | -0.257

Sequence | PBM E-score
CCCTCCGC | -0.155
AATACACA | 0.246
ACTTCAGA | -0.0467
TAGCGCCA | -0.0874
CAACTGAG | 0.201
GACAACCA | 0.0056
CGGTCAAC | 0.0471
AGACGCCG | 0.00826
TAGGGATA | -0.0231
GAAGCCGA | 0.0458
CTGGTTAA | -0.0274
CCTCTTAG | -0.14
ATGTGGAA | 0.0819
GGAATAAC | -0.071
TACAGCCA | 0.0431
TTCCACAA | 0.139
CGTAATAA | 0.0802
ACGAGGAC | 0.0419
CGCACTAA | 0.156
CGTATCGC | 0.0065
ATCGAAGA | -0.0137
GCCCCCAC | -0.274
CTCCTCTC | -0.215
ACTGACAC | 0.0369
AAGGGAAT | -0.179

Sequence | PBM E-score
ATTCCACC | 0.179
GAGCCGAA | 0.0162
TGGCGTAA | -0.212
CCTCAAGG | -0.289
CAAGGCAG | 0.0176
AGGCGTGA | 0.019
ATGCAGGC | 0.0143
CGATCCAC | 0.112
AAAGAGGC | -0.255
CCATCCGC | 0.0427
AAGTTTGT | -0.034
AACCGATC | 0.0252
GTCACATA | 0.261
CATCTCAC | 0.067
CTCTCTCA | -0.121
CACACACC | 0.235
CTCCGGCC | -0.237
AAGGATTG | -0.0386
ACATCGTG | 0.141
AGCACCAA | -0.0328
CACGCCTG | -0.182
AAGTACCG | -0.139
CTGAACGA | -0.141
ATGCCGTA | -0.05
CGCATTGC | 0.109

Sequence | PBM E-score
CGGATCAC | 0.198
GCCTTACA | -0.225
AGACAGCC | -0.0763
CCCTTTAA | -0.0754
TATACGGA | 0.0337
AAGTTCTC | -0.0694
AGTAAGCG | -0.0453
TATGCTAA | -0.0598
CCACCGTC | -0.0714
ACATGGGA | 0.131
GGCTTGTA | 0.0426
ATTCCTGG | 0.149
GCGGCCAA | -0.0733
ATTACTAG | -0.0784
GAAGGGGA | -0.105
GACCGGTC | -0.225
GTATGTAA | 0.0638
GACCTTCC | -0.134
CACAATTA | -0.111
ACACGGAC | -0.0486
CCCGTAAA | -0.0071
AGGCTCCA | -0.138
CATATTAG | -0.0339
GATAAGCC | -0.115
CCGCTCCA | -0.0108

Sequence | PBM E-score
ACCCACCG | 0.256
CACGCGTG | 0.181
TACCCAGA | 0.192
CCGATCAG | -0.0785
CGTAGTTA | 0.0682
ATCGGGAA | -0.0483
CCCCGTTC | 0.0158
AACCGTAC | -0.0106
CACCGAAC | -0.0645
ACGTTAAT | 0.0148
GTAATCAC | 0.198
AGCGCACA | 0.00461
CGCGCGAC | 0.162
AAAGGGGA | -0.175
TCCGAACA | -0.196
ACACTGTG | 0.252
ACACGCAC | 0.0673
AGTGACCA | 0.151
GGCGCGAA | 0.0599
GTGAACAC | -0.0631
ATATATTA | 0.201
TCTTAGCA | -0.139
AGTAAGTG | -0.0132
AACACCTA | 0.0665
CACGCAAC | -0.114

Sequence | PBM E-score
ACGGTCAC | -0.0582
CCCATGCC | 0.101
CAGCAGCC | 0.0977
CGTACCAC | -0.146
GCTACCCC | -0.125
CAGAAGGG | -0.226
GACACACA | 0.298
ATCCGCCC | 0.0504
ACGCCACG | -0.154
CCGCCAGA | 0.129
CCCAGGCA | 0.0398
AGACGTAC | -0.00933
AACCTCTC | -0.172
AACGGCCG | 0.00713
CGATACTC | -0.00981
CCGTGAGG | 0.0593
TCGTTAGA | -0.259
CTGTTGGC | -0.0833
ATGCGGAG | 0.0129
AGTTCTAT | -0.0616
ACAACATG | 0.224
ACGAGTGA | 0.0168
ACACCTAT | 0.151
TGTTAGAA | -0.163
GTAACTTA | 0.0909

Sequence | PBM E-score
GGTTTCAC | -0.109
GGCTGGGA | -0.0889
GCCTCTCA | -0.211
CATCCCGA | 0.128
GTATAAAA | -0.0845
AAACCCTT | -0.0985
GATATCTA | -0.0136
CATCGCCA | 0.0893
ACGATGTC | 0.117
AGCGTTAT | -0.219
CCAAGATA | 0.15
AACTGGCC | -0.114
CATGCCAG | 0.0228
GTTCTCTA | -0.292
CGCTTAGA | -0.295
GAAGGTGC | -0.195
CGCCGTGC | 0.0149
ACATTTAG | -0.191
TCGATCGA | 0.2
AATCCTGG | -0.0483
GCTCGCGA | 0.226
GATAGGTA | 0.0484
